# Experimental data from the supplement of paper PMC8728848.
# The other results are listed elsewhere or left out.
# B1: Si Bti9 1b-HA (Solanum lycopersicum) (protein)
# chain: MFESRPRSVLSLGVFVILVYLSSVPLPVNSQCNRGCDLALASFYVWRGSNLTLISEMFSTSIADIVSYNNRDNIPNQDSVIAGTRINIPFRCDCLNDGEVLGHAFPYRVKSGDTYDLVARNYSDLTTAQWMMKFNSYPENNIPNTVNLSVVVNCSCGNSDVSKDFGLFVTYPVRAEDNLTSVASAANVSEDIIRRYNPAAVSILDIGQGIIYIPGRDRNGNFPPLPTSTDGLSGGAKAPLFFNPAFLYKVVELKLAGRSRTSGYPYDVPDYAGYPYDVPDYALEVLFQ
# How the values were obtained:
# Assay in all cases: glycan array binding signal (z-score within array); higher = stronger binding
# Details in all cases: glycan notation: IUPAC condensed, linker removed
# Fuc(a1-3)GlcNAc = target: Fuc(a1-3)GlcNAc
# Summary of the method: (§1)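 The Consortium for Functional Glycomics database supplied 3228 glycan arrays, of which those lacking an available protein sequence were dropped. The binding signal, a within-array Z-score, was averaged across arrays of the same protein sequence and across linkers. Negative scores can be read as non-binding.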
# [1] = target: Fuc(a1-3)[Gal(b1-4)]Glc6S
# Summary of the method: as §1
# [2] = target: Fuc(a1-3)[Gal(b1-4)]GlcNAc
# Summary of the method: as §1
# [3] = target: Fuc(a1-3)[Gal(b1-4)]GlcNAc(b1-2)Man
# Summary of the method: as §1
# [4] = target: Fuc(a1-3)[Gal(b1-4)]GlcNAc(b1-2)Man(a1-3)[Fuc(a1-3)[Gal(b1-4)]GlcNAc(b1-2)Man(a1-6)]Man(b1-4)GlcNAc(b1-4)GlcNAc
# Summary of the method: as §1
# [5] = target: Fuc(a1-3)[Gal(b1-4)]GlcNAc(b1-2)Man(a1-3)[Fuc(a1-3)[Gal(b1-4)]GlcNAc(b1-2)Man(a1-6)]Man(b1-4)GlcNAc(b1-4)[Fuc(a1-6)]GlcNAc
# Summary of the method: as §1
# [6] = target: Fuc(a1-3)[Gal(b1-4)]GlcNAc(b1-3)Gal(b1-3)[Fuc(a1-4)]GlcNAc
# Summary of the method: as §1
# [7] = target: Fuc(a1-3)[Gal(b1-4)]GlcNAc(b1-3)Gal(b1-4)[Fuc(a1-3)]GlcNAc
# Summary of the method: as §1
# [8] = target: Fuc(a1-3)[Gal(b1-4)]GlcNAc(b1-3)Gal(b1-4)[Fuc(a1-3)]GlcNAc(b1-3)Gal(b1-4)[Fuc(a1-3)]GlcNAc
# Summary of the method: as §1
# [9] = target: Fuc(a1-3)[Gal(b1-4)]GlcNAc(b1-3)GalNAc
# Summary of the method: as §1
# [10] = target: Fuc(a1-3)[Gal(b1-4)]GlcNAc(b1-6)GalNAc
# Summary of the method: as §1
# [11] = target: Fuc(a1-3)[Gal(b1-4)]GlcNAc(b1-6)[Gal(b1-3)GlcNAc(b1-3)]Gal(b1-4)Glc
# Summary of the method: as §1
# [12] = target: Fuc(a1-3)[Gal(b1-4)]GlcNAc6S
# Summary of the method: as §1
# [13] = target: Fuc(a1-3)[Gal3S(b1-4)]Glc
# Summary of the method: as §1
# [14] = target: Fuc(a1-3)[Gal3S(b1-4)]GlcNAc
# Summary of the method: as §1
# [15] = target: Fuc(a1-3)[Gal3S(b1-4)]GlcNAc6S
# Summary of the method: as §1
# [16] = target: Fuc(a1-3)[GalNAc(b1-4)]GlcNAc
# Summary of the method: as §1
# [17] = target: Fuc(a1-3)[GalNAc(b1-4)]GlcNAc6S
# Summary of the method: as §1
# Fuc(a1-4)GlcNAc = target: Fuc(a1-4)GlcNAc
# Summary of the method: as §1
# Fuc(b1-3)GlcNAc = target: Fuc(b1-3)GlcNAc
# Summary of the method: as §1
# Gal(a1-2)Gal = target: Gal(a1-2)Gal
# Summary of the method: as §1
# Gal(a1-3)Gal = target: Gal(a1-3)Gal
# Summary of the method: as §1
# Gal(a1-3)Gal(b1-3)GlcNAc = target: Gal(a1-3)Gal(b1-3)GlcNAc
# Summary of the method: as §1
# [18] = target: Gal(a1-3)Gal(b1-3)GlcNAc(b1-2)Man
# Summary of the method: as §1
# [19] = target: Gal(a1-3)Gal(b1-3)GlcNAc(b1-2)Man(a1-3)[Gal(a1-3)Gal(b1-3)GlcNAc(b1-2)Man(a1-6)]Man(b1-4)GlcNAc(b1-4)GlcNAc
# Summary of the method: as §1
# [20] = target: Gal(a1-3)Gal(b1-3)GlcNAc(b1-3)GalNAc
# Summary of the method: as §1
# [21] = target: Gal(a1-3)Gal(b1-3)GlcNAc(b1-6)GalNAc
# Summary of the method: as §1
# [22] = target: Gal(a1-3)Gal(b1-3)[Fuc(a1-4)]GlcNAc(b1-2)Man(a1-3)[Gal(a1-3)Gal(b1-3)[Fuc(a1-4)]GlcNAc(b1-2)Man(a1-6)]Man(b1-4)GlcNAc(b1-4)GlcNAc
# Summary of the method: as §1
# Gal(a1-3)Gal(b1-4)Glc = target: Gal(a1-3)Gal(b1-4)Glc
# Summary of the method: as §1
# Gal(a1-3)Gal(b1-4)GlcNAc = target: Gal(a1-3)Gal(b1-4)GlcNAc
# Summary of the method: as §1
# [23] = target: Gal(a1-3)Gal(b1-4)GlcNAc(b1-2)Man
# Summary of the method: as §1
# [24] = target: Gal(a1-3)Gal(b1-4)GlcNAc(b1-2)Man(a1-3)[Gal(a1-3)Gal(b1-4)GlcNAc(b1-2)Man(a1-6)]Man(b1-4)GlcNAc(b1-4)GlcNAc
# Summary of the method: as §1
# [25] = target: Gal(a1-3)Gal(b1-4)GlcNAc(b1-3)GalNAc
# Summary of the method: as §1
# [26] = target: Gal(a1-3)Gal(b1-4)GlcNAc(b1-6)GalNAc
# Summary of the method: as §1
# [27] = target: Gal(a1-3)Gal(b1-4)[Fuc(a1-3)]GlcNAc
# Summary of the method: as §1
# [28] = target: Gal(a1-3)Gal(b1-4)[Fuc(a1-3)]GlcNAc(b1-2)Man(a1-3)[Gal(a1-3)Gal(b1-4)[Fuc(a1-3)]GlcNAc(b1-2)Man(a1-6)]Man(b1-4)GlcNAc(b1-4)GlcNAc
# Summary of the method: as §1
# Gal(a1-3)GalNAc = target: Gal(a1-3)GalNAc
# Summary of the method: as §1
binder,measurement,setting,value
B1,glycan array binding signal (z-score),Fuc(a1-3)GlcNAc,-0.298
same,glycan array binding signal (z-score),[1],0.17
same,glycan array binding signal (z-score),[2],-0.337
same,glycan array binding signal (z-score),[3],-0.271
same,glycan array binding signal (z-score),[4],-0.379
same,glycan array binding signal (z-score),[5],-0.099
same,glycan array binding signal (z-score),[6],-0.028
same,glycan array binding signal (z-score),[7],0.109
same,glycan array binding signal (z-score),[8],-0.223
same,glycan array binding signal (z-score),[9],0.058
same,glycan array binding signal (z-score),[10],0.125
same,glycan array binding signal (z-score),[11],-0.061
same,glycan array binding signal (z-score),[12],-0.621
same,glycan array binding signal (z-score),[13],-0.055
same,glycan array binding signal (z-score),[14],-0.246
same,glycan array binding signal (z-score),[15],0.077
same,glycan array binding signal (z-score),[16],-0.293
same,glycan array binding signal (z-score),[17],0.018
same,glycan array binding signal (z-score),Fuc(a1-4)GlcNAc,-0.444
same,glycan array binding signal (z-score),Fuc(b1-3)GlcNAc,-0.422
same,glycan array binding signal (z-score),Gal(a1-2)Gal,0.79
same,glycan array binding signal (z-score),Gal(a1-3)Gal,-0.361
same,glycan array binding signal (z-score),Gal(a1-3)Gal(b1-3)GlcNAc,9.57
same,glycan array binding signal (z-score),[18],-0.219
same,glycan array binding signal (z-score),[19],0.622
same,glycan array binding signal (z-score),[20],0.207
same,glycan array binding signal (z-score),[21],-0.449
same,glycan array binding signal (z-score),[22],0.896
same,glycan array binding signal (z-score),Gal(a1-3)Gal(b1-4)Glc,0.083
same,glycan array binding signal (z-score),Gal(a1-3)Gal(b1-4)GlcNAc,1.28
same,glycan array binding signal (z-score),[23],0.595
same,glycan array binding signal (z-score),[24],-0.152
same,glycan array binding signal (z-score),[25],-0.182
same,glycan array binding signal (z-score),[26],-0.333
same,glycan array binding signal (z-score),[27],-0.48
same,glycan array binding signal (z-score),[28],0.923
same,glycan array binding signal (z-score),Gal(a1-3)GalNAc,-0.344
